Experimental data published in the supplement of paper PMC3334620.
In all, about 33,000 sequences were measured (“E-score (-0.5 to 0.5)”: median about -0.043, highest 2% from about 0.37 on). This is one part of the list.

Target: T1, Upc2 (UniProt Q12151)
T1 sequence: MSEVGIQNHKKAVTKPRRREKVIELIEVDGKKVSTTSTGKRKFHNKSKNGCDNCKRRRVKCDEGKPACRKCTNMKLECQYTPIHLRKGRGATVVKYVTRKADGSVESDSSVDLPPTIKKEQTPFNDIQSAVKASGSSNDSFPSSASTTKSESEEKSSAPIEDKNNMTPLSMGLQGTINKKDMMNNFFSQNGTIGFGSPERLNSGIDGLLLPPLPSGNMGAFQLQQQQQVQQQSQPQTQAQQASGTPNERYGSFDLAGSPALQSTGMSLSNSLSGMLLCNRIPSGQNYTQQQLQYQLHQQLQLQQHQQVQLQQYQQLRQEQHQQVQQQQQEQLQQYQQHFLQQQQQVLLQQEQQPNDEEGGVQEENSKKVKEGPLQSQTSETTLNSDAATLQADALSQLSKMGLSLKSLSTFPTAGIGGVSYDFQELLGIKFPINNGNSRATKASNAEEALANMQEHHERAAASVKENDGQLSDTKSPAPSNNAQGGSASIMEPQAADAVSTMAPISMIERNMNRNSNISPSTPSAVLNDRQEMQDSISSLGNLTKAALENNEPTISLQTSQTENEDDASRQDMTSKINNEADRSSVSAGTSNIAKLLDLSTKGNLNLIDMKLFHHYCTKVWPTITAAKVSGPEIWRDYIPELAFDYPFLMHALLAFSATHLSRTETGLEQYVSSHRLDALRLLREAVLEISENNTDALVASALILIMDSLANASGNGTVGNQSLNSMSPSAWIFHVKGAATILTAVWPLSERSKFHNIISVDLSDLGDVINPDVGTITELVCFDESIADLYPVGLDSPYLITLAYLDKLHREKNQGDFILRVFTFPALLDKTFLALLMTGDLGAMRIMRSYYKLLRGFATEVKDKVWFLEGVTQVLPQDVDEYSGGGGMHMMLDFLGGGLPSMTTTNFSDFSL
Experiment: PBM E-score (8-mer binding enrichment) (E-score (-0.5 to 0.5)); higher = stronger / more preferred TF binding; most listed sequences are background and not binding sites
Settings: protein concentration: 200 nM; construct: GST-full length
Protocol: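 Universal 'all 10-mer' protein binding microarrays (Agilent AMADID 015681) probed with GST-tagged S. cerevisiae TFs (full-length or DBD) made by in vitro transcription/translation (PURExpress), about 100-200 nM. Bound TF was detected with fluorescent anti-GST. Each ungapped 8-mer (which stands for itself and its reverse complement) is scored by the PBM enrichment score (E-score), a modified Wilcoxon-Mann-Whitney statistic from -0.5 to +0.5, computed with the Universal PBM Analysis Suite. Scale: above 0.35 generally sequence-specific binding.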

| Sequence | PBM E-score |
| --- | --- |
| TATAAGAA | 0.301 |
| CGGGTGAG | -0.215 |
| CAACTCCG | -0.124 |
| AGCTAAGC | -0.0935 |
| ATCCGCAA | -0.112 |
| AACGTAGA | 0.162 |
| CTCTTGCC | -0.16 |
| AACACTCC | -0.12 |
| AAAGCTCC | -0.216 |
| AACGGGTG | 0.259 |
| ACCCGCTG | -0.245 |
| CCCCGGCG | -0.0578 |
| CTCCGACC | -0.18 |
| ATGCCGTC | -0.0321 |
| GCTTAATA | -0.0144 |
| AAACGGGC | 0.395 |
| TCACTCAA | -0.222 |
| GCTTACCC | -0.0189 |
| ATATTTCG | 0.193 |
| AAGTATGC | -0.0575 |
| ATTCGTTG | 0.215 |
| GATGGGAC | -0.0558 |
| GATGTAAC | -0.111 |
| ATGGTCTG | -0.129 |
| CATTCGAA | 0.111 |

| Sequence | PBM E-score |
| --- | --- |
| CCTGCTTC | -0.109 |
| CATATGCA | 0.0275 |
| GGAAGGCC | -0.297 |
| GTGCAAAC | 0.17 |
| ACCCAAAG | -0.216 |
| GTGTAGCA | -0.165 |
| CGGGAGCC | -0.038 |
| CCTGTCCG | 0.0675 |
| AAGGCAGC | -0.18 |
| ACATATTG | -0.182 |
| CACCCGGG | -0.155 |
| CCAGAAAG | 0.0406 |
| CGTCAACA | -0.211 |
| AGCTTAGA | 0.0114 |
| AGGTGATA | -0.0961 |
| CAAGAGTG | -0.109 |
| TACGAAGA | 0.448 |
| AGCTTACT | -0.287 |
| CGATGGTC | 0.0693 |
| CAGCAACA | -0.0473 |
| ATCAATCG | 0.0992 |
| AGGCACCC | -0.303 |
| CCGGGCAC | -0.214 |
| GAAGTCAC | -0.238 |
| CTCTCAAG | -0.308 |

| Sequence | PBM E-score |
| --- | --- |
| ATTGTGCA | -0.0646 |
| ATCGACTG | 0.0556 |
| TATTTACA | 0.00782 |
| CTCCCCCC | -0.323 |
| AGCTCTTC | -0.118 |
| ATTCGGAG | -0.121 |
| CCTTGTAG | -0.276 |
| CATAATGA | -0.119 |
| GGGCCCGA | -0.0269 |
| ATTATAAC | -0.061 |
| CTGGGCCA | -0.311 |
| CCTGGATC | -0.357 |
| CTGCGCAG | 0.049 |
| ATCTTCTC | -0.0622 |
| CTCACGCA | -0.0375 |
| CCATGCCC | -0.298 |
| ACCCGCAA | -0.172 |
| ACTTGTTA | -0.249 |
| CGAACCTA | 0.0247 |
| GCTGGCAA | -0.0682 |
| ATTAGTGC | 0.0587 |
| TCAGGCGA | -0.213 |
| CACAGCGG | -0.185 |
| AATAGGGA | -0.138 |
| GAACAATA | 0.217 |

| Sequence | PBM E-score |
| --- | --- |
| ATGCCAAC | 0.0593 |
| CAACGATA | 0.228 |
| AAATCTAG | -0.0529 |
| GCGACTGA | 0.0026 |
| GTGTTAGA | -0.0373 |
| AGGAGTCG | -0.0517 |
| CAGCACAG | -0.0719 |
| AGATCCGC | -0.172 |
| GGTGTTTA | 0.0236 |
| CCGAGAGG | 0.0477 |
| GTTCGGGA | 0.0695 |
| CAGCCTCG | 0.0297 |
| GAGCAAGA | -0.0392 |
| ATTCCGTG | -0.0761 |
| ACTATCTA | 0.121 |
| CAGAAGAG | -0.205 |
| CCGTCGCG | 0.132 |
| AAATTTGT | 0.103 |
| AGGAAGAT | -0.202 |
| GAGAAGAC | -0.0478 |
| AGACTAAA | -0.0936 |
| CACGCCAG | -0.0201 |
| ATCCGAGC | 0.208 |
| CCACGAAG | -0.115 |
| CTTTACCA | -0.146 |

| Sequence | PBM E-score |
| --- | --- |
| CCGTGCCG | 0.137 |
| CGTACAAA | 0.421 |
| CCTGCCCG | -0.228 |
| AGAATGTG | -0.0453 |
| GTGAGATA | -0.125 |
| AAACAGGC | -0.201 |
| GGAGAGAA | -0.218 |
| AAGAACAA | 0.0297 |
| ATGGTACC | -0.257 |
| GAACCTGC | 0.115 |
| AAGCCGTC | -0.0182 |
| ACTGTCAT | -0.11 |
| AGATTTAC | 0.0747 |
| ATGGAAGG | -0.326 |
| GATCCGTA | 0.343 |
| CCTTGAGC | -0.197 |
| CTTCGATC | 0.0841 |
| TGCACACA | 0.0289 |
| CACAACGG | -0.161 |
| CATGGCCG | -0.144 |
| TGGTAGAA | -0.154 |
| TAAAAGAA | 0.247 |
| CCCTACCG | -0.194 |
| CATACTGC | -0.0808 |
| CAGGCGGG | -0.208 |

| Sequence | PBM E-score |
| --- | --- |
| CAAGAATA | -0.0513 |
| ATCTACGC | 0.0599 |
| ATGACTCA | 0.029 |
| CTTCGAAA | -0.0154 |
| AAGTGAGG | -0.123 |
| ACAGTCAT | -0.254 |
| AACAGTCA | -0.205 |
| ACCGCTCC | -0.0981 |
| CGGTAACC | 0.153 |
| AGTGGCAC | -0.2 |
| GTTCAAAC | 0.178 |
| ATGAAGAG | -0.119 |
| CAGCCTGA | -0.229 |
| CCCATAAA | -0.0286 |
| ACTTTTAC | 0.276 |
| GTCAGAGA | -0.194 |
| TTATGGAA | -0.0191 |
| ATGCAAAC | 0.157 |
| ATTGACGA | 0.031 |
| TACGCTGA | 0.268 |
| AGCACGGC | -0.0241 |
| ACAGGAGT | -0.199 |
| GAGTCCCC | -0.401 |
| ATCCAATC | -0.083 |
| ACTTAGAA | 0.119 |

| Sequence | PBM E-score |
| --- | --- |
| AATCTTAA | 0.0256 |
| CGGCGAAA | 0.148 |
| CGGGCTGA | -0.0843 |
| AGACTTAA | -0.021 |
| AGAAATAA | -0.0255 |
| AATGGTGA | -0.152 |
| GCCATAGA | -0.0542 |
| GTGGGCTA | -0.128 |
| AGAAGTCG | -0.0197 |
| CATGTCTA | -0.179 |
| ACATGCAT | 0.0115 |
| CCCACCGG | -0.166 |
| GTGGATGA | -0.213 |
| ATCCGGAG | 0.00834 |
| CGCCTGTA | -0.0476 |
| AATAAATG | 0.013 |
| AAACAATG | 0.0166 |
| GATGCTTA | -0.0276 |
| AGTCAACC | -0.073 |
| GGCTGCAC | -0.118 |
| GGCATTAA | 0.0625 |
| AAGTATCT | -0.0174 |
